The results in this text go back to article PMC4336329 (PLoS ONE, 2015).

The whole screen tested about 310,000 compounds, of which about 2,200 (0.71%) showed an effect of 50% or more. The effect is printed as a negative number. This is one part of the list.

For the experiment, the target named is human ether-à-go-go-related gene (hERG) potassium channel (human, UniProt Q12809). The experiment in a line: primary screen, population patch clamp on CHO cells stably expressing hERG.
Sequence of human ether-à-go-go-related gene (hERG) potassium channel (Q12809 whole entry, looked up): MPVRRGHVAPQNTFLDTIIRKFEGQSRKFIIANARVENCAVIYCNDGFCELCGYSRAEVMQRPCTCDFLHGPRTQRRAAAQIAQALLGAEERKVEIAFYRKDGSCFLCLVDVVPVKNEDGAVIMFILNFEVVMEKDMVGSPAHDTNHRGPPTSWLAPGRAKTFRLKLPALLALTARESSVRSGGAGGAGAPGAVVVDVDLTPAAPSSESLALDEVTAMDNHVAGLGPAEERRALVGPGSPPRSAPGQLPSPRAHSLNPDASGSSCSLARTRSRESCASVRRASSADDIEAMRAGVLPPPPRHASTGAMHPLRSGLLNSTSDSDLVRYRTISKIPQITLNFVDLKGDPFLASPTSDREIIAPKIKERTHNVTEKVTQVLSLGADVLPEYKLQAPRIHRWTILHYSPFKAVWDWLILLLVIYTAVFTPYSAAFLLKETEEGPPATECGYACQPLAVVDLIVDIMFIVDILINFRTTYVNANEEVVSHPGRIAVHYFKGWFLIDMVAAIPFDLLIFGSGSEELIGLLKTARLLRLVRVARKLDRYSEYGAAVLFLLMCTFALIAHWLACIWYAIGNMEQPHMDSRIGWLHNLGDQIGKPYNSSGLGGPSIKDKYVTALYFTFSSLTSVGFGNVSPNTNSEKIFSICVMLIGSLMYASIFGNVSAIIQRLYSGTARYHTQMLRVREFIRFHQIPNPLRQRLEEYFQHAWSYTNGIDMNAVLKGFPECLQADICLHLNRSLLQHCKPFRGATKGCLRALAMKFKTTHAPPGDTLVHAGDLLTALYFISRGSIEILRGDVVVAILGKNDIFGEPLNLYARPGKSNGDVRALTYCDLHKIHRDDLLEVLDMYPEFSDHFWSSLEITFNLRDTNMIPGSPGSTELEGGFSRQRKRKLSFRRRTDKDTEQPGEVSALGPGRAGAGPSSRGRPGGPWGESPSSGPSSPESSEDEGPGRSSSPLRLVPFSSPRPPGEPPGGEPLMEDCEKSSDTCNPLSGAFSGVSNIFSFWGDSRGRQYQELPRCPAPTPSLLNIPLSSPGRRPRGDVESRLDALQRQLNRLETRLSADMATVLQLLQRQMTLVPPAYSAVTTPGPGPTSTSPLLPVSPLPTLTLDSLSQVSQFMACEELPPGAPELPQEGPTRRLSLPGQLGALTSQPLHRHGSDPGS
Regarding `CCCCn1c(N)c(N(CCOC)C(=O)CCNC(=O)c2ccc(Cl)cc2)c(=O)[nH]c1=O`, the “hERG current change (%, negative = inhibition) at 1uM” value is recorded as 5.21%.

Take `COC(=O)C1=C(c2c(C)noc2C)C[C@@H]2CC[C@H]1N2C(=O)NCCOc1ccc(OC)cc1`: the “hERG current change (%, negative = inhibition) at 1uM” value amounted to 12.3%.

As for `COc1c(C)cccc1C(=O)Nc1ccc(CN2CCCCC2)cc1`, the “hERG current change (%, negative = inhibition) at 1uM” value is recorded as -6.71%.

In the case of `CN(CCCN1CCOCC1)C(=O)c1cc(COc2c(F)cccc2F)on1`, the “hERG current change (%, negative = inhibition) at 1uM” value worked out at 8.01%.

With `COc1cc(C)nc(N2CCC(C(=O)NC3CCCCC3)CC2)n1`, the “hERG current change (%, negative = inhibition) at 1uM” value stood at 4.74%.

`COc1ccc(/C=C/c2ccncc2)c2ccccc12`: the “hERG current change (%, negative = inhibition) at 1uM” value stood at 13.7%.

For the compound `O=C(c1cc(COc2ccc(F)cc2Cl)on1)N1CCC(OCc2cccnc2)CC1`, the “hERG current change (%, negative = inhibition) at 1uM” value was -19.8%.

`CCC(O)(CC)C(=O)N/N=C/c1cc(Br)cc(Br)c1O`: the “hERG current change (%, negative = inhibition) at 1uM” value amounted to 9.26%.

Turning to `CN(C)C(=O)CN(c1ccc(F)c(Cl)c1)S(C)(=O)=O`, the “hERG current change (%, negative = inhibition) at 1uM” value turned out to be 14.6%.

`CC(C)OCCCn1c(=O)c2ccccc2n2c(CCC(=O)NCc3ccccn3)nnc12`: the “hERG current change (%, negative = inhibition) at 1uM” value is listed as 11%.

Consider `O=C(CN1C(=O)/C(=C/c2ccccc2F)SC1=S)NC1C=CS(=O)(=O)C1` (stereo not shown), for which the “hERG current change (%, negative = inhibition) at 1uM” value is listed as 11.4%.

Take `COc1ccc(CNC(=O)C[C@H]2C(=O)N(c3ccccc3)C[C@@H]2Cc2ccccc2)cc1`: the “hERG current change (%, negative = inhibition) at 1uM” value is recorded as -21%.

`CCC(=O)Nc1cccc(-c2nc3ccccc3c(=O)o2)c1`: the “hERG current change (%, negative = inhibition) at 1uM” value amounted to 10.7%.

Regarding `Cc1cc2[nH]c(=O)c(=O)[nH]c2cc1S(=O)(=O)NCc1ccc(Cl)cc1`, the “hERG current change (%, negative = inhibition) at 1uM” value is 10.5%.

With `Cc1cccc(-c2nnc(-c3ccc(N)cc3)o2)c1`, the “hERG current change (%, negative = inhibition) at 1uM” value turned out to be 10.9%.

Take `CN1C(=S)SC(N(O)C(=O)NC2CCCCC2)C1(C)C` (stereo not shown): the “hERG current change (%, negative = inhibition) at 1uM” value is on record as -8.74%.

Consider `CC(C)(C)CN1CCNC(=O)C1CC(=O)N1CCC(C(=O)N2CCOCC2)CC1` (stereo not shown), for which the “hERG current change (%, negative = inhibition) at 1uM” value was 6.25%.

For `O=C(c1cnsn1)N1CCC(CO)(Cc2ccc(Cl)cc2)CC1`, the “hERG current change (%, negative = inhibition) at 1uM” value amounted to 2.82%.

For `C[C@H](NC(=O)c1nc[nH]c1C(=O)NCCCCCNC(=O)OC(C)(C)C)C(=O)OC(C)(C)C`, the “hERG current change (%, negative = inhibition) at 1uM” value was found to be 14.1%.

`Nc1nc(SCC(=O)NCCOCCO)nc2sc3c(c12)CCCC3`: the “hERG current change (%, negative = inhibition) at 1uM” value was 15%.

As to `COc1cc2c(cc1NC(=S)NC(=O)c1c(OC)cccc1OC)oc1ccccc12`, the “hERG current change (%, negative = inhibition) at 1uM” value came to 13.7%.

With `Clc1ccc(CON/C=N/c2ncnc3sccc23)c(Cl)c1`, the “hERG current change (%, negative = inhibition) at 1uM” value worked out at 5.41%.

Consider `COc1ccc(C2c3[nH]c4ccccc4c3CCN2C(=O)Cc2nonc2C)c(F)c1` (stereo not shown), for which the “hERG current change (%, negative = inhibition) at 1uM” value turned out to be 16.1%.

As to `COC(=O)c1sccc1NC(=O)c1ccccc1C(=O)O`, the “hERG current change (%, negative = inhibition) at 1uM” value worked out at 14.2%.

As to `COc1ccc(-c2csc(NC(=O)c3ccccc3F)n2)cc1`, the “hERG current change (%, negative = inhibition) at 1uM” value came out at 10%.

As for `COC(=O)c1ccc(C2c3c(oc4ccccc4c3=O)C(=O)N2CCCN2CCOCC2)cc1` (stereo not shown), the “hERG current change (%, negative = inhibition) at 1uM” value is 7.41%.

In the case of `O=C(NCCc1ccc(Cl)cc1)C1CC(=O)N(CCc2ccccc2)C1` (stereo not shown), the “hERG current change (%, negative = inhibition) at 1uM” value is -13.6%.

On to `CC(=O)N1CCN(Cc2nc3cc(NC(=O)COc4cccc(C)c4)ccc3n2C)CC1.Cl`, for which the “hERG current change (%, negative = inhibition) at 1uM” value is on record as 13.2%.

As to `O=c1cc(CSc2nnnn2-c2ccc(O)cc2)nc2sccn12`, the “hERG current change (%, negative = inhibition) at 1uM” value is -4.91%.

As to `COc1cc(OC)c(C2=NOC(C(=O)O)C2)cc1Cl` (stereo not shown), the “hERG current change (%, negative = inhibition) at 1uM” value is given as 8.64%.

On to `O=S(=O)(c1ccc(-c2ccon2)s1)N1CCCC1`, for which the “hERG current change (%, negative = inhibition) at 1uM” value came to 11.7%.

Take `COc1ccc(-c2nc3ccccn3c2Cl)cc1`: the “hERG current change (%, negative = inhibition) at 1uM” value came out at 12.5%.

With `CC(C)NC(=S)N=Nc1c(O)[nH]c2ccc(C(C)C)cc12`, the “hERG current change (%, negative = inhibition) at 1uM” value came to 1.56%.

As to `CCOc1ccc(CNc2ccc(CNc3ncn[nH]3)cc2)cc1`, the “hERG current change (%, negative = inhibition) at 1uM” value came to 12.9%.

With `CCOC(=O)C1CCN(c2ccc(-c3cccs3)nn2)CC1`, the “hERG current change (%, negative = inhibition) at 1uM” value is given as 16.1%.

Take `C=CCOc1c(Br)cc(CNn2nnnc2N)cc1OC`: the “hERG current change (%, negative = inhibition) at 1uM” value is 12.3%.

For the compound `Cc1cc(NC(=O)c2ccc(Cl)c([N+](=O)[O-])c2)no1`, the “hERG current change (%, negative = inhibition) at 1uM” value is reported as 11.3%.

Regarding `Cc1ccccc1-n1nc(C)c2cc(C(=O)N3CCN(S(=O)(=O)c4ccc(Cl)cc4)CC3)sc21`, the “hERG current change (%, negative = inhibition) at 1uM” value stood at 13.1%.

Take `CC(=O)Nc1cccc(-n2nnc(SCC(=O)Nc3ccccc3)n2)c1`: the “hERG current change (%, negative = inhibition) at 1uM” value is 15.7%.

Turning to `Br.CC(C)c1nnc2n1N=C(c1ccc(Cl)cc1)CS2`, the “hERG current change (%, negative = inhibition) at 1uM” value was found to be 20.4%.

As to `CC1Cc2ccccc2N1C(=O)CN1CCC(n2nnc3cc(C(F)(F)F)ccc32)CC1` (stereo not shown), the “hERG current change (%, negative = inhibition) at 1uM” value is -9.16%.

Turning to `CCOC(=O)C1=C(COC(=O)c2cccnc2Cl)NC(=O)NC1C` (stereo not shown), the “hERG current change (%, negative = inhibition) at 1uM” value was 6.46%.

`O=C(CCC(=O)c1cccs1)NNC(=O)c1ccccc1O`: the “hERG current change (%, negative = inhibition) at 1uM” value came out at 9.97%.
